Assay results from PubChem BioAssay AID624418 (National Center for Advancing Translational Sciences (NCATS), 2012).
Among all 410,000 compounds or so, about 530 (0.13%) were called active. This list was built around the results that the source calls inconclusive (neither active nor inactive); the mix of calls is not that of the screen. Calls follow the shape of the dose curve; as a rule, active = well fitted inhibition curve with a large enough effect; inconclusive = small, poorly fitted or top-dose-only effect, or another doubt; inactive = no such curve, though single readings can be large or run the other way. Potencies beside an inconclusive call are fits to weak or partial responses and may not hold up.
% is scaled to controls: 0 for no effect and ±100 for the full control effect; potency is read from the fitted curve at half-maximal effect.

Experiment: qHTS of GLP-1 Receptor Inverse Agonists: Cytotox Screen
Conditions: HEK293 cAMP-luciferase reporter cells, luminescence, 24 h; activity change, negative = inhibition: at 38.3 µM (top of the series) unless noted
Summary of the method: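 Here, cytotoxicity is scored as loss of luminescence. The MLSMR collection was tested on cells seeded in medium containing 10% Nu serum, with a 24 hr compound exposure preceded by 12 hours of culture.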
In the case of Fc1ccccc1NC(=S)Nc1ccc(Br)cc1, the Potency is reported as inconclusive: 28.2 µM [inhibitor, single point]. In the case of Cc1cc(Cl)ccc1NC(=S)NCC(O)c1ccccc1 (stereo not given), the Potency is reported as “inactive”. For Cc1cccc(N2CCN(C(=O)C3CCN(S(=O)(=O)c4c(C)noc4/C=C/c4ccccc4F)CC3)CC2C)c1 (stereo not given), the Potency was “inactive”. With Cc1ccc(S(=O)(=O)Nc2nc3cc(C)c(C)cc3[nH]2)cc1 the Potency was inconclusive: 28.2 µM [inhibitor, single point]. With c1ccc(N2CC3COc4ccccc4C3=N2)cc1 (stereo not given) the Potency was “inactive”. For N=c1n(CC(=O)c2cccc([N+](=O)[O-])c2)c2ccccc2n1Cc1ccccc1, the Potency was inconclusive: 10 µM [inhibitor, single point]. For Cc1ccc(NC2Nc3cc(C)nn3S2)c(C)c1 (stereo not given), the Potency was inconclusive: 28.2 µM [inhibitor, single point]. In the case of Oc1cc2c(cc1C(c1ccc(Cl)c(Cl)c1)N1CCCC1)OCO2 (stereo not given), the Potency is reported as “inactive”. For CCCOc1ccc(F)cc1-c1cc(C(=O)Nc2ccc(OC)nc2)[nH]n1, the Potency was inconclusive: 11.2 µM [inhibitor, single point]. For COc1ccc(N=NC2=C(O)CC(C)(C)CC2=O)c(OC)c1, the Potency was inconclusive: 11.2 µM [inhibitor, single point]. For O=C(CCS(=O)(=O)c1ccc(F)cc1)Nc1nc(-c2ccccn2)cs1, the Potency was inconclusive: 28.2 µM [inhibitor, single point]. For OC(CNCC1CCCO1)Cn1c2ccc(Cl)cc2c2cc(Cl)ccc21 (stereo not given), the Potency was inconclusive: 28.2 µM [inhibitor, single point]. With O=C(CCSc1ccccc1)NC1CCCCCC1 the activity change, negative = inhibition was inactive: 3.08% [at 7.66 µM]. With CC(=O)c1cccc(NC(=O)CCn2nc(C)c(S(=O)(=O)N(C)C)c2C)c1 the Potency was “inactive”. In the case of CCC(C)(C)C1CCC(=NNC(=S)Nc2cccnc2)CC1 (stereo not given), the Potency is reported as inconclusive: 7.08 µM [inhibitor, partial curve]. In the case of CCCCn1c(N)c(N(CCOC)C(=O)c2ccc(Cl)c(S(=O)(=O)N3CCCCC3)c2)c(=O)[nH]c1=O, the Potency is reported as “inactive”. In the case of Cc1ccccc1Nc1nc(NCc2ccco2)c2ccccc2n1, the Potency is reported as inconclusive: 28.2 µM [inhibitor, single point]. For FC(F)(F)c1cc(-c2ccco2)nc(NCc2cccnc2)n1, the Potency was inconclusive: 10 µM [inhibitor, single point]. For Cc1csc2c(NC3CCN(Cc4ccccc4)CC3)ncnc12, the Potency was “inactive”. In the case of COc1cccc(NC(=O)CN(C)C(=O)c2cc(-c3ccc(F)cc3)nc3ccccc23)c1, the Potency is reported as inconclusive: 28.2 µM [inhibitor, single point].
